Data: publication PMC12040169 (PLOS Biology, 2025)
This is one part of the list.

test system: T1, C. trachomatis L2/434/Bu expressing GFP (CTL2-GFP); parameters: species or system HeLa; C. trachomatis total inclusion area by high-content imaging, normalised to DMSO; conditions: total inclusion area; 28.5 h, 10 µM; inhibitor
T1 construct: L2/434/Bu GFP intracellular growth in HeLa cells
Procedure, shortened: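 Imaging read-out: GFP inclusions and Hoechst nuclei captured by high-content imaging after fixation. Inclusion area/number = chlamydial growth; nuclei count = host cell viability. MIC calculated per earlier method.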

In order of rising “% of control remaining” value:
1. Cc1ccccc1N1C(=O)c2ccc(Br)cc2C1=O [CBK022430]  22.0314
2. CCCCC1CCC(C(=O)Oc2ccccc2OCCO)CC1 (stereo not drawn) [CBK081498]  30.228
3. CC(C(=O)N1CCC2(CC1)NC(=O)c1ccccc1N2)(c1ccccc1)c1ccccc1 [CBK286308]  35.8469
4. CC(C)NC(=O)CN(CCO)Cc1cc(Br)ccc1F [CBK304944]  36.67
5. CCSc1nnc2c(n1)OC(C)Nc1ccccc1-2 (stereo not drawn) [CBK025684]  37.3026
6. CCOC(=O)C1(Cc2cc(-c3ccccc3F)no2)CCNCC1 [CBK284580]  44.5716
7. N#Cc1c[nH]c(C(=O)NC2CCN(C(=O)c3ccccc3)CC2)c1 [CBK306433]  47.279
8. COCCN(CCOC)C(=O)COc1c(Cl)cc(C(=O)O)cc1Cl [CBK296704]  50.0111
9. O/N=C1\CC2(CCCCC2)c2ccccc21 [CBK013318]  55.0535
10. Cc1nc(C(C)NC(=O)c2cc(C3CC3)nc3c2c(C)nn3C)cs1 (stereo not drawn) [CBK304779]  63.746
11. C/N=c1\cccccc1NC [CBK022788]  64.8237
12. O=S(=O)(Nc1ccc(Cl)c(Cl)c1)c1ccc(Cl)c(Cl)c1 [CBK044838]  64.8804
13. COCCN1CCC(CNC(=O)Nc2cc(C)ccc2F)C1 (stereo not drawn) [CBK304631]  68.5366
14. OCCC1CCCCN1c1cncc(-c2cccc(Cl)c2)n1 (stereo not drawn) [CBK037906]  69.2907
15. COCCCn1c(=O)[nH]c2ncc(-c3cnc(OC)nc3)nc21 [CBK064618]  69.355
16. Cc1ccccc1Nc1ccccc1C(=O)O [CBK012249]  69.5372
17. O=C(Cc1ccc(F)cc1F)N1CCC(Sc2ccc(-c3ccccc3)cc2)CC1 [CBK131950]  70.6362
18. COc1cc2c(cc1NC(=O)c1ccc(C)c([N+](=O)[O-])c1)oc1ccccc12 [CBK263411]  72.3107
19. Cc1cc(O)c(C(=O)Nc2cccc(Cl)c2)c(=O)n1Cc1ccccn1 [CBK287729]  76.6224
20. O=C(O)c1nccnc1C(=O)NCCc1c[nH]c2ccc(Cl)cc12 [CBK286630]  77.6663
21. CCCc1nn(CC(=O)N(CC)CC)c(=O)c2cc3ccsc3n12 [CBK284192]  79.2276
22. O=C(Nc1ccc(Oc2ncccn2)cc1)c1csc(-c2ccccc2)n1 [CBK298324]  80.2066
23. CCOc1cc2c(cc1NS(=O)(=O)c1cc(C(=O)O)ccc1C)OC(C)C2 (stereo not drawn) [CBK296711]  80.9327
24. N#Cc1c(SCC(=O)O)nc(-c2cccs2)c2c1CCCC2 [CBK269858]  81.0922
25. COc1ccccc1OCC(=O)Nc1cc(C)nc2ccccc12 [CBK122728]  81.1148
26. CCC(CO)Nc1cncc(-c2ccc3c(c2)OCO3)n1 (stereo not drawn) [CBK065970]  81.4877
27. Cc1ncc(C(=O)NC2(c3cccc(F)c3)CCCC2)c(C)n1 [CBK283273]  83.1458
28. COc1ccc(-c2csc(Nc3cccc(C(=O)O)c3)n2)cc1 [CBK286924]  83.7274
29. CCNC(=O)N1CC(C)N(CCCCc2ccc(F)cc2)C(C)C1 (stereo not drawn) [CBK025027C]  85.4184
30. CC(C)NC(=O)NC(=O)C1CCN(CCCc2ccc(Cl)c(Cl)c2)CC1 [CBK034947]  88.2238
31. O=CNCCCc1nc2ccccc2n1CCc1ccccc1 [CBK269393]  89.3022
32. CC(=O)Nc1ccc(CN[C@@H]2CCC[C@H]2Cc2cc(C)no2)cc1 [CBK285459]  90.0384
33. C=C(C)CNC(=O)c1cc(Br)cnc1N(C)S(C)(=O)=O [CBK076498]  90.1944
34. Cc1nc2c(c(=O)[nH]1)CN(Cc1c[nH]c3ccccc13)CC2 [CBK282327]  90.6886
35. COc1cccc(CN2CCC3(CC2)NC(=O)Cc2ccc(C)cc23)c1 [CBK040219]  90.972
36. N#Cc1c2c(c(NCCN3CCCCC3)n3c1nc1ccccc13)CCC2 [CBK263140]  91.1474
37. Cn1nnnc1SCCNC(=O)Nc1cccc(CN2CCCCC2)c1 [CBK306872]  91.5093
38. COCCn1cc(CN2CCC(CO)C2)c2ccccc21 (stereo not drawn) [CBK282123]  91.6284
39. O=C(CN1CCC(c2ccccc2F)CC1)NCc1ccco1 [CBK283550]  93.0464
40. CS(=O)(=O)Nc1ccc(-c2cccc(C(F)(F)F)c2)c2ccccc12 [CBK083746]  93.1857
41. Cc1n[nH]c(C)c1CC(=O)N1CCCC(c2cc3ccccc3cn2)C1 (stereo not drawn) [CBK285018]  93.3414
42. CCn1nc(C)c(CN(C)Cc2nc3ccccc3[nH]2)c1C [CBK282126]  93.5833
43. CN(C)CC(=O)NCc1ccc(-c2nc(-c3ccc(C#N)cc3)cnc2N)cc1 [CBK116506]  93.6744
44. COc1ccc(CCN2C(=O)/C(=C\c3c(NCCO)nc4c(C)cccn4c3=O)SC2=S)cc1 [CBK265566]  93.9183
45. CS(=O)(=O)Nc1nccnc1OC1CCN(CCc2c[nH]c3ccccc23)CC1 [CBK084282]  94.5173
46. CC1CC1C(=O)NC1CCN(CC2(c3ccccc3)CC2)CC1 (stereo not drawn) [CBK285353]  94.7518
47. COC(=O)N1CC2(CCCCC2NCC2CCCO2)c2ccccc21 (stereo not drawn) [CBK083541T]  95.0179
48. O=C(O)[C@H]1CN(C(=O)c2cccs2)C[C@@H]1c1ccccc1F [CBK283819]  96.3983
49. c1ccc(OCCN2CCC3(C2)NCCc2[nH]ccc23)cc1 (stereo not drawn) [CBK084595T]  96.696
50. O=C(c1ccc(F)cc1)C1CCN(CCc2c[nH]c3ccccc23)CC1 [CBK149125]  97.1121
51. CS(=O)(=O)c1ccc(CNC(=O)c2ccccc2-n2cccc2)cc1 [CBK149612]  97.2397
52. O=C(O)c1ccc(NS(=O)(=O)c2cccc([N+](=O)[O-])c2)cc1O [CBK200022]  98.861
53. O=C(NCCCO)c1ccc(/C=N/O)nc1 [CBK264560]  99.2383
54. O=[N+]([O-])c1ccc(CN2CCN(C3CCN(Cc4ccccc4)CC3)CC2)cc1 [CBK264310G]  99.2925
55. CC(C)n1cc(C(=O)N2CCCC(c3cc4ncccc4[nH]3)C2)cn1 (stereo not drawn) [CBK283419]  99.4456
56. CCc1c(C)nc2c(C(=O)NC(CC)COC)cnn2c1C (stereo not drawn) [CBK162133]  99.6342
57. Cc1ccc(CCNC(=O)c2snnc2C)cc1C [CBK282051]  99.8393
58. COc1ccc(-c2cc(C3CCN(C4CCSCC4)C3)[nH]n2)cc1 (stereo not drawn) [CBK285282]  100.146
59. COc1ncc(-c2nccnc2NCc2cccc(Cl)c2)c(OC)n1 [CBK037990]  100.594
60. O=C(CCCOc1ccc(Cl)cc1Cl)Nc1c[nH]c(=O)[nH]c1=O [CBK264235]  100.78
61. COc1cccc(OCc2cnc(-c3ccc(Cl)cc3)c(-c3cccc(CNC(C)=O)c3)c2)c1 [CBK165225]  101.391
62. Cn1cc(C(CC(=O)O)C(=O)O)c2ccccc21 (stereo not drawn) [CBK266231]  103.788
63. CNC(=O)c1sc2ccccc2c1C1CCN(Cc2ccc(Oc3ncccn3)cc2)C1 (stereo not drawn) [CBK285881]  104.158
64. COc1cccc(C(=O)N2CCC(Cc3ccccc3-c3ccccc3)(C(N)=O)CC2)c1 [CBK285729]  104.21
65. CC(C)c1ccc(C2C(C(=O)c3ccco3)=C(O)C(=O)N2CCCN(C)C)cc1 (stereo not drawn) [CBK264549]  105.795
66. CCOc1ccc(NC(=O)Nc2ccc(CC(=O)O)cc2)cc1 [CBK266945]  107.604
67. Cc1noc(C)c1NC(=O)c1n[nH]c2ccccc12 [CBK200301]  107.82
68. Cn1ccc(C(=O)N2CCCC3(C/C=C/Cc4ccccc4OCC(=O)NC3)C2)cc1=O (stereo not drawn) [CBK292179]  108.084
69. COc1ccc(C2=C(Nc3ccc(C(=O)NCc4cccnc4)cc3)c3ccccc3C2=O)cc1 [CBK263809]  108.479
70. Cn1c2c(c(=O)n(C)c1=O)[C@@H]1C(C[C@](O)(CO)[C@H]1O)C1(CCC1)N2 (stereo partly drawn) [CBK303264]  110.061
71. O=C(O)c1cccc(NCC(=O)c2ccccc2)c1 [CBK287163]  110.458
72. COC(=O)c1ccsc1NC(=O)CN1CCNCC1 [CBK057080]  113.142
73. O=C(O)c1cc(NC(=O)c2cccc(F)c2)cc(NC(=O)c2cccc(F)c2)c1 [CBK262800]  115.011
74. O=C(O)COC(=O)C1C(c2ccccc2)C(C(=O)O)C1c1ccccc1 (stereo not drawn) [CBK263881]  116.205
75. Cc1ccc2cc(CN(Cc3ccco3)S(C)(=O)=O)c(O)nc2c1 [CBK269409]  118.713
76. COC(=O)c1c(-c2ccncc2)csc1NC(=O)Cc1ccc([N+](=O)[O-])cc1 [CBK268119]  119.341
77. COCCNc1cc(-c2ccc(F)c(F)c2)ncn1 [CBK090800]  119.544
78. CC(C)OC(=O)Cc1nc(CN2CCOC(c3ccc(F)cc3)C2)cs1 (stereo not drawn) [CBK305439]  125.908
79. CN1CCCC(NC(=O)Cn2nc(C(F)(F)F)c3c2CCCC3)C1 (stereo not drawn) [CBK282548]  126.84
80. O=C(O)c1cccc(-c2ccc(Nc3cccc(NC(=O)c4ccncc4)c3)nc2)c1 [CBK037776]  139.28
81. COc1ncc(-c2cncc(NCCc3ccccn3)n2)c(OC)n1 [CBK065287]  145.653
